# Experimental data: the supplement of paper PMC3334620
# The full ranking holds about 33,000 sequences; the median of “E-score (-0.5 to 0.5)” is about -0.041, and the highest 2% start at about 0.37. The list shows a part of the results.
# Target: T1, Ecm22 (UniProt Q05958)
# T1 sequence: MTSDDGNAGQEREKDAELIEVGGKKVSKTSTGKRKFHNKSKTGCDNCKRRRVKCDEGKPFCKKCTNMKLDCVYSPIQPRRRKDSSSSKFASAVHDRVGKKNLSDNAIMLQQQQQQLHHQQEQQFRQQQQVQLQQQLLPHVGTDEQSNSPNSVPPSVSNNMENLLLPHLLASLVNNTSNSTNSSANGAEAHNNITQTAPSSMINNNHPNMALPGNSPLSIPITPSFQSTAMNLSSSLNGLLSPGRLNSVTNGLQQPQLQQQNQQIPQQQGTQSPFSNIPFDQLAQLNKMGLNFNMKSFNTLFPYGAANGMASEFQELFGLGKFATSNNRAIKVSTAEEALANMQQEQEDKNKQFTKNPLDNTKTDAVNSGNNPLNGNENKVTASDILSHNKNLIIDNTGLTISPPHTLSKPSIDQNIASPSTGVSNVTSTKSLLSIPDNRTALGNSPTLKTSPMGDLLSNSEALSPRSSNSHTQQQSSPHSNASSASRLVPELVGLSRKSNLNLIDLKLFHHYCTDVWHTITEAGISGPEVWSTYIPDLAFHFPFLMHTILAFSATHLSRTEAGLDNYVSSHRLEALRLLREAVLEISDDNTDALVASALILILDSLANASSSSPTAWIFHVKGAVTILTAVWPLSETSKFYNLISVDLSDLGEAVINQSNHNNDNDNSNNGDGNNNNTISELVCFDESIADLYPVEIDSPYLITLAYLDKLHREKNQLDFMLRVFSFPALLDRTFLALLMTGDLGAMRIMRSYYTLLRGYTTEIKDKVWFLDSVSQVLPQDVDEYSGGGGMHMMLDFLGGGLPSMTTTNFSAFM
# Assay: PBM E-score (8-mer binding enrichment) (E-score (-0.5 to 0.5)); higher = stronger / more preferred TF binding; most listed sequences are background and not binding sites
# Details: protein concentration: 200 nM; construct: GST-full length
# Procedure: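 Universal 'all 10-mer' protein binding microarrays (Agilent AMADID 015681) probed with GST-tagged S. cerevisiae TFs (full-length or DBD) made by in vitro transcription/translation (PURExpress), about 100-200 nM. Bound TF was detected with fluorescent anti-GST. Each ungapped 8-mer (which stands for itself and its reverse complement) is scored by the PBM enrichment score (E-score), a modified Wilcoxon-Mann-Whitney statistic from -0.5 to +0.5, computed with the Universal PBM Analysis Suite. Scale: above 0.35 generally sequence-specific binding.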
row,Sequence,PBM E-score
1,CAACTCTA,-0.209
2,TATGATGA,0.00697
3,GTCAATAA,0.0675
4,ACCTTATG,-0.146
5,CGCTACAA,0.0321
6,AAGTAATG,-0.068
7,AGTTCGCC,0.0208
8,ATGTGGCA,-0.097
9,AATGCTAG,-0.149
10,CGGACGGC,0.0309
11,AAGCGATA,0.168
12,AGCCTGAT,-0.168
13,GGCGTCGA,-0.0169
14,ATCGTCCA,-0.241
15,ATACGCAC,0.292
16,TGTGGGAA,-0.114
17,CCGACCTC,0.00198
18,AATCATTG,-0.13
19,CTCAGACA,-0.152
20,ACGCCGTC,-0.0565
21,ACTAATGC,0.0211
22,AAGAACTG,-0.0848

row,Sequence,PBM E-score
1,CTCTTCTA,-0.0431
2,ACGTGCGG,-0.046
3,ATATCCTA,-0.186
4,CCCCACGG,-0.132
5,GGATTTAC,0.0417
6,GAAGGTAA,0.0431
7,CTCAGATC,-0.108
8,GAATCTCA,-0.00523
9,CCACGACC,0.00845
10,GCTACATA,-0.0814
11,AGCTACTC,-0.0704
12,AGCTCGGC,0.164
13,CACATTAC,0.114
14,AAAATGGG,-0.234
15,CGGTCATC,0.0497
16,AGCCACTA,-0.0252
17,GAGAAGGA,-0.105
18,CACTATAG,-0.118
19,CTGGCGTC,0.0205
20,CACCCGAC,0.0849
21,CCTTTTCA,-0.111
22,AAGCGCCA,-0.145

row,Sequence,PBM E-score
1,ATTCCCTA,-0.152
2,AGTCCAAA,-0.108
3,ATTGTTGC,-0.109
4,ACTTCAAT,-0.101
5,CCAAAACG,0.0808
6,TACACCAA,-0.0768
7,AAGAGCCC,-0.117
8,CCACAGGA,-0.182
9,AATAGTCT,-0.0732
10,AGGCCACT,-0.176
11,TCGCAGAA,0.0357
12,AACTGCCC,-0.0941
13,GCAGTTGA,-0.0451
14,CCCCAGCA,-0.237
15,TACCAAGA,0.0174
16,ATGTCGGC,-0.148
17,ACAGTTTC,0.035
18,AAAGGGCT,-0.324
19,ACGCGCGT,0.222
20,AGCCTCGG,0.0847
21,TATTATAA,-0.0191
22,ACGTACAC,0.254

row,Sequence,PBM E-score
1,AGATGTCA,-0.0988
2,GGTTATGA,0.0407
3,AAGCTCCC,-0.1
4,GGTGATCA,-0.0994
5,CAGGCTCA,-0.129
6,TACTGAAA,0.127
7,AGACATTG,-0.268
8,ACGGAGTA,0.098
9,AACCAGTT,0.0492
10,AGCGCCGG,0.0591
11,GGCTAAGA,-0.218
12,CGTACACC,0.37
13,GCCCCGAC,-0.0731
14,CCGTCTAA,-0.187
15,CTGTAAGA,-0.265
16,TAAGAGGA,0.0334
17,ATGGCCAC,-0.196
18,ATGAAAAT,0.0993
19,AAAATTAC,0.175
20,CAGTTCAG,-0.054
21,AAGGCGAG,0.0136
22,GTTGAAAA,0.0473

row,Sequence,PBM E-score
1,GCAAAAAC,-0.0665
2,AGGCCATG,0.00734
3,ACCTATAG,-0.424
4,CTCAAGAC,-0.279
5,TCAGTAAA,0.0155
6,CCTCATAC,0.0317
7,CGTCCCAA,-0.162
8,CGCCGCGA,0.0463
9,GTTAACTA,0.106
10,CTCACCCC,-0.103
11,CATCTCCC,-0.124
12,AACCGACT,0.245
13,CGACTGCA,0.121
14,AACAAACC,0.0168
15,AGTGACTA,0.00852
16,ACAGATGC,-0.121
17,ACTAATTG,-0.0745
18,CCCATTAG,-0.248
19,ATATGAGA,-0.0254
20,GAGAGTGC,0.0126
21,GAACGTGC,-0.0863
22,ACGTCGAG,0.061
